Assay results from PubChem BioAssay AID488969 (Vanderbilt High Throughput Screening Facility, 2010).
Whole data set: some 110,000 compounds, median “z-score” near -0.1, cut for the highest 2% near 2. This is one part of the list.

What follows are compounds tested against Metabotropic glutamate receptor 8 (Rattus norvegicus) (UniProt P70579) (assay: mGluR8 Gi/Go-coupled signaling modulation – cell-based, rat, thallium flux, HTS, primary screen (AID 488969)). Conditions: HEK293 rat mGluR8, GIRK (G protein-gated inwardly rectifying potassium channel) thallium flux, FluoZin2; at 10 µM; stronger effect = higher value; submaximal glutamate (EC20) added with thallium.
Chain of UniProt P70579 (P70579 whole entry, looked up): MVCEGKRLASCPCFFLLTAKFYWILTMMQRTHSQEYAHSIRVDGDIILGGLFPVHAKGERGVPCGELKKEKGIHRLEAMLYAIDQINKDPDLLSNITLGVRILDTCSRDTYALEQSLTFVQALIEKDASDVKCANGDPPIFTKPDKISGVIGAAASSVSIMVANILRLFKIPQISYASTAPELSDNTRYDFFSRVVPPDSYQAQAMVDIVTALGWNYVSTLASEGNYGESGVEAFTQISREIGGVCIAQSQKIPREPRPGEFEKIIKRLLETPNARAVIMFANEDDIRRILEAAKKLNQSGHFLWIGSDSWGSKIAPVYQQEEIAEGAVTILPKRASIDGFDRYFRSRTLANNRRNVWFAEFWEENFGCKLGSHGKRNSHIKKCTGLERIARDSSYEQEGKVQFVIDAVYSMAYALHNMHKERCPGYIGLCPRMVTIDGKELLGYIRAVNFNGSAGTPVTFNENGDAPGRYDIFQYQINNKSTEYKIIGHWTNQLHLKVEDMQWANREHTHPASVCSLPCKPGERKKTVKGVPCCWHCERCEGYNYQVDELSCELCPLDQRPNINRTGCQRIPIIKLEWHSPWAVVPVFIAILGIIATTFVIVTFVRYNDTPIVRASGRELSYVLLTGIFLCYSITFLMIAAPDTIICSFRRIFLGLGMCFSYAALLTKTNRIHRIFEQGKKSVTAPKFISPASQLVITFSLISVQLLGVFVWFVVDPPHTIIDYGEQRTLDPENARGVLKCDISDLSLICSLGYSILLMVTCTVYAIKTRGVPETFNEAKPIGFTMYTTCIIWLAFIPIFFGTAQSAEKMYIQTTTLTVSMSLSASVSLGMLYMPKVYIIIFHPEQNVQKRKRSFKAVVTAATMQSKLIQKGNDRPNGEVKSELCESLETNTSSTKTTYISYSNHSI

| Compound | z-score |
| --- | --- |
| COc1ccc(NC(=O)CSc2nc(N)c(-c3ccccc3)c(=O)[nH]2)cc1 | -0.236 |
| Cc1nnc(SCc2cccc(Oc3ccccc3)c2)n1N | 0.446 |
| CCCCN1C(=O)C(NC(=O)C2CC2)(C(F)(F)F)C2=C1CC(C)(C)CC2=O (configuration not stated) | 0.836 |
| CCn1c(=O)c2cc(S(=O)(=O)NCc3ccccc3)ccc2n(CC)c1=O | -0.246 |
| O=C(NCCCn1ccnc1)/C(=C\c1cccs1)NC(=O)c1ccccc1 | -0.191 |
| O=C(CN1C(=O)CSCC1=O)Nc1ccc2c(c1)OCO2 | -0.195 |
| O=C(CN(c1ccc(Cl)c(C(F)(F)F)c1)S(=O)(=O)c1ccccc1)N/N=C/c1cccc2c1OCCO2 | 0.23 |
| Cc1nnc(SCC(=O)N2CC(=O)Nc3ccccc32)n1C | 0.683 |
| CCOc1cccc(CN2CCN(c3cccc(C(F)(F)F)c3)CC2)c1O | 0.145 |
| Cc1ccc(S(=O)(=O)N(C)CC(=O)Nc2ccccc2)cc1 | -0.0279 |
| CCOC(=O)COc1cccc2c(=O)n(CC(=O)N3CCN(C(=O)OCC)CC3)ccc12 | -0.0151 |
| COc1ccccc1OCC(=O)NN1Cc2ccccc2C1=N | -0.434 |
| Cc1ccc(/C=N/NC(=O)c2ccccn2)o1 | -0.512 |
| CCc1ccc(C(=O)CSC2=C(C#N)C(c3ccco3)C(C(C)=O)=C(C)N2)cc1 (configuration not stated) | -0.295 |
| Cc1ccc(N2C(=O)C(NC(=O)c3ccccc3F)(C(F)(F)F)C3=C2CC(C)(C)CC3=O)cc1 (configuration not stated) | 0.22 |
| COc1cc(C2=NOC(C(=O)NCc3cccs3)C2)cc(OC)c1OC (configuration not stated) | -0.117 |
| O=C(c1ccccc1Oc1nnnn1-c1ccccc1)N1CCOCC1 | -0.23 |
| CCOC(=O)c1c(N2C(=O)Nc3ccccc3N2O)sc2c1CCCCC2 | -0.536 |
| CCC(=O)N(CC)c1nc(-c2cc(OC)ccc2OC)cs1 | -0.221 |
| CCCCNC(=O)NC1CCCC1 | -0.132 |
| O=C(O)CC(O)C(=O)O (configuration not stated) | 0.546 |
| CC(=O)c1nc(N2C(=O)CC(Cc3cc(C)cc(C)c3)C2=O)sc1C (configuration not stated) | 2.19 |
| COc1cccc(OC)c1C(=O)Nc1ccc(C)cc1C(=O)c1ccccc1 | 0.12 |
| Cc1noc(C)c1S(=O)(=O)NCCc1ccc(S(N)(=O)=O)cc1 | -0.365 |

| Compound | z-score |
| --- | --- |
| COc1ccc(Oc2nccc(-c3ccc(Cl)cc3)n2)cc1 | -0.0957 |
| CC(C)N(CCc1ccncc1)C(=O)Nc1ccc(F)cc1 | -0.201 |
| Cc1cccc(S(=O)(=O)NC(Cc2c[nH]c3ccccc23)C(=O)O)c1 (configuration not stated) | 2.17 |
| COCCN=C1Sc2nc3c(C)cccc3cc2CN1Cc1ccco1 | 0.0241 |
| COc1ccc(O)c(-c2cn[nH]c2-c2cccs2)c1 | 0.787 |
| CC(C)CN(C(=O)CN1CCN(c2ccc(F)cc2)CC1)c1c(N)n(CC(C)C)c(=O)[nH]c1=O | -0.0842 |
| CCC(C)C1C(C#N)=C(N)Oc2n[nH]c(C)c21 (configuration not stated) | -0.936 |
| O=C(CCS(=O)(=O)c1ccccc1)Nc1nc2c(s1)COc1ccccc1-2 | -0.504 |
| Cc1cccc(C)c1NC(=O)NC1CC2CCC(C1)N2Cc1cccs1 (configuration not stated) | -0.35 |
| CC1(c2ccc(OC(F)F)cc2)NC(=O)N(/N=C/c2c(O)ccc3ccccc23)C1=O (configuration not stated) | 0.709 |
| COc1cc(NS(=O)(=O)c2ccc(N/C=C(\C=O)c3nc4ccccc4o3)cc2)nc(OC)n1 | -0.664 |
| CC(=O)N1CCN(C(=S)c2ccc([N+](=O)[O-])cc2)CC1 | -0.16 |
| CC(C)C(O)(C#CCN1CCCCC1)C(C)C | -0.19 |
| CCSc1ccc(-c2nn(-c3ccccc3)cc2/C=C(/C#N)C(=O)NCCCOC)cc1 | -2.09 |
| CCCCCC(=O)NC(=S)Nc1ccc(N2CCOCC2)cc1 | -0.42 |
| Cc1nc2ccccc2n1CC(=O)N/N=C\c1ccccn1 | 0.341 |
| CCS(=O)(=O)/N=C(\N)c1ccccc1 | 0.166 |
| COc1ccc(/C=C(\NC(=O)c2ccccc2)C(=O)N/N=C/c2sccc2C)cc1 | -0.28 |
| CCOC(=O)c1c(NC(=O)CN2CCOCC2)sc2c1CC(C)(C)OC2 | -0.226 |
| Clc1ccc(Cl)c(OCCN2CCOCC2)c1 | -0.122 |
| Cn1nccc1C(=O)Nc1ccc(Cl)cc1 | 0.196 |
| CCOC(=O)/C(C#N)=C/C1=C(N2CCCC2)CC(C)(C)OC1 | 2.75 |
| COc1ccc(OC)c(CNC(=O)Cc2c(C(=O)O)[nH]c3ccccc23)c1 | -0.828 |
| Cn1nc(OC(=O)Nc2ccc(Cl)cc2)cc1C(F)(F)F | -0.309 |

| Compound | z-score |
| --- | --- |
| CCN1CCN(CC(=O)c2c[nH]c3ccccc23)CC1 | -0.051 |
| CC(=O)c1c(C)nn(CCC(=O)O)c1C | -0.184 |
| COC(=O)c1ccccc1NC(=O)c1ccccc1OC | 0.307 |
| O=C(CNc1ccc(C(F)(F)F)cc1[N+](=O)[O-])OCC(=O)c1ccccc1 | -0.875 |
| O=C(COc1ccc2ccccc2c1)N1CCN(C(=O)c2cccnc2)CC1 | -0.0679 |
| C=C(C)c1cccc(C(C)(C)NC(=O)Nc2ncccn2)c1 | 0.295 |
| Cc1nc(SCC(=O)Nc2ccc(N3CCOCC3)cc2)nc(C)c1C | 0.112 |
| CCCN(CC(=O)Nc1cc(Cl)cc(Cl)c1)CC(=O)Nc1ccc(F)c(F)c1F | -0.209 |
| O=C(O)C1CC(=O)N(CCOc2ccccc2)C1 (configuration not stated) | -0.106 |
| Cc1cccc(NC(=O)CN(C)S(=O)(=O)c2cnc[nH]2)c1 | 1.6 |
| CC(C)COC(=O)CNc1n[nH]c(=S)[nH]c1=O | 1.98 |
| CCOC(=O)C1CCN(c2ncnc3c2cnn3-c2ccccc2)CC1 | -0.639 |
| C=CCSc1nnc(-c2ccc(Cl)cc2Cl)o1 | -0.0349 |
| O=C(Cc1ccccc1)Nc1scc(-c2ccccc2)c1C(=O)N1CCOCC1 | -0.0604 |
| CCc1cc2c(=O)c(-c3nc4ccccc4n3C)c(C)oc2c(CN(CC)CC)c1O | -0.0764 |
| CCN(CC)C(=O)COc1cc(C)c(Cl)c(C)c1 | 0.126 |
| Cc1ccsc1/C=N\NC(=O)c1ccc2c(c1)OCO2 | 1.8 |
| COc1ccc(C(C)(C)C)cc1NC(=O)c1ccoc1C | -0.969 |
| CC(OC(=O)C1=COCCO1)C(=O)Nc1ccc(Oc2ccccc2)cc1 (configuration not stated) | 0.0205 |
| CCc1ccc2[nH]c3nc(C)cc(C)c3c(=O)c2c1 | -0.218 |
| CCc1ccc(C(=O)c2ccccc2C(=O)O)s1 | -0.0365 |
| Cc1ccc(NC(=O)COC(=O)C2CC3C=CC2C3)cc1S(=O)(=O)N1CCCCC1 (configuration not stated) | 2.02 |
| C[C@H](Nc1ncnc2sc3c(c12)CCC3)C(=O)O | 0.0927 |
| CCOC(=O)c1[nH]c2ccc(OC)cc2c1NC(=O)CCN1CCCC(C)C1 (configuration not stated) | 0.0864 |
